Data as given in PubChem BioAssay AID504339 (National Center for Advancing Translational Sciences (NCATS), 2011).
Screen size: about 390,000 compounds; about 17,000 (4.4%) were called active. Inconclusive results, whose numbers are uncertain, are shown with a selection of clear calls. The call rests on the fitted dose curve; in most records, active means well fitted inhibition curve with a large enough effect; inconclusive means small, poorly fitted or top-dose-only effect; inactive means no such curve, though single readings can be large or run the other way. Potencies of inconclusive entries are doubtful fits and often do not repeat.

Biological target: Lysine-specific demethylase 4A (Homo sapiens) (UniProt O75164)
Assay: qHTS Assay for Inhibitors of JMJD2A-Tudor Domain; further: nearly all actives have a fitted effect of over 50% in size
Details: AlphaScreen JMJD2A-Tudor / H3K4me3 peptide binding; activity change, negative = inhibition: at 114 µM (top of the series)
On the % scale 0 is the no-effect control and ±100 the full control effect; potency means the concentration at half of the fitted maximal effect; tags describe the fitted curve by direction and shape.

UniProt O75164, sequence (O75164 whole entry, looked up, the tested form may be a part): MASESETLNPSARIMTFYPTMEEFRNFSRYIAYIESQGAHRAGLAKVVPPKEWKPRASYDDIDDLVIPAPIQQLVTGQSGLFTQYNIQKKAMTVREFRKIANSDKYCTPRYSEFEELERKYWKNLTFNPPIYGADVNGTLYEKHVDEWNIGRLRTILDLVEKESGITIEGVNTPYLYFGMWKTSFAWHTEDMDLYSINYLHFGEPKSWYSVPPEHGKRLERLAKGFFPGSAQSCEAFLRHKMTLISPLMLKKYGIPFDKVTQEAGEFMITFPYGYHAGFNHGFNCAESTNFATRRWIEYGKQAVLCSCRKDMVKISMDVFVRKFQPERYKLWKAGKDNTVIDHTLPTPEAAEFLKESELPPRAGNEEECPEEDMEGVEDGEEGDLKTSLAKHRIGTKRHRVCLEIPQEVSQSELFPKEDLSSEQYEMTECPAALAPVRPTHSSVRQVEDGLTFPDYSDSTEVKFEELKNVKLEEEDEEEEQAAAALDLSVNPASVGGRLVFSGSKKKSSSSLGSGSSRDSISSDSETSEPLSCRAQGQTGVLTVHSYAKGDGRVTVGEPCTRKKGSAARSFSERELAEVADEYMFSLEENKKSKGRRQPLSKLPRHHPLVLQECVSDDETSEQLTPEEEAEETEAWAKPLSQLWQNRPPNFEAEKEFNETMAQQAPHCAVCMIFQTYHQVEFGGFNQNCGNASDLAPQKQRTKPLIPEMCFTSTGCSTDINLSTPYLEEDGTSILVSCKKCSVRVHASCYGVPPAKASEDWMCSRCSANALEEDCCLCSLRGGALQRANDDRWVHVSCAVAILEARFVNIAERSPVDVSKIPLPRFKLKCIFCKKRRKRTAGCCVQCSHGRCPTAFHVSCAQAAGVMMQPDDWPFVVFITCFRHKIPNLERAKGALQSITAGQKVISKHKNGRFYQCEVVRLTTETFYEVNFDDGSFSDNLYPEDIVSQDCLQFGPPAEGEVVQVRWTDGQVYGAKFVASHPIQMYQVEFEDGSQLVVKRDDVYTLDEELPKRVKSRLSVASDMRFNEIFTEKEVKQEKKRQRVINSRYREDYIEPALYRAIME

Activity change, negative = inhibition, inactive:
CC(C)OCCCNC(=O)c1ccc(CN2CCc3ccccc3C2)cc1 3.44%
COc1ccccc1NC(=O)c1ccc2ccccc2c1 61.6%
CCOc1cc(C(=O)Nc2ccc(-c3nnc4n3CCCCC4)cc2)cc(OCC)c1OCC -19.1%
O=C1CN(C(=O)c2c(F)cccc2Cl)C(c2ccc(F)cc2)c2cc(Br)ccc2N1 (stereo unspecified) -18.1%
CCc1c(C)sc(NC(=O)Cn2nc(C(F)(F)F)c3c2CCCC3)c1C#N 4.21%
Clc1cccc(Cl)c1C1=NOC(c2nnc(-c3ccccc3)o2)C1 (stereo unspecified) 11.1%
O=C1NCCOC(=O)[C@@H](Cc2ccc(F)cc2)CC/C=C/C[C@H]1CC(=O)N(CCO)Cc1ccccc1 -13.7%
CS(=O)(=O)N1CCCC(C(=O)Nc2ccc(F)c(F)c2)C1 (stereo unspecified) 3.72%
CC(C)n1cc(C(=O)NC2CC(C)(C)Cc3c2cnn3-c2ccccc2)cn1 (stereo unspecified) 0.694%
CCc1ccc(CNC(=O)C2CCN(S(=O)(=O)N3CCC4(CC3)OCCO4)CC2)cc1 -16.6%
Cc1cccn2c(=O)c3cc(C(=O)NCCN4CCOCC4)c(=N)n(CCCN4CCOCC4)c3nc12 -28.3%
Cc1cc(OCC(=O)Nc2ccc(C(=O)OC3CCCCC3)cc2)ccc1Cl -12.4%
CC(=O)c1ccc(NC(=O)CSc2nc3c(=O)n(C)c(=O)n(C)c3n2C)cc1 -0%
Cn1cnc2c1c(=O)n(Cc1ccc(F)cc1Cl)c(=O)n2C 3.31%
Cc1cccc(N(C)C(=O)CCS(=O)(=O)c2cccc3nonc23)c1 -5.71%
COc1ccccc1NS(=O)(=O)c1cc([N+](=O)[O-])ccc1N/N=C/c1sc(N2CCOCC2)nc1-c1ccccc1 -11.8%
O=C(CSc1nnc2scc(-c3ccccc3)n12)N1CCN(Cc2ccccc2)CC1 -17.4%
O=C(CN1CCN(Cc2ccccc2)CC1)NCc1ccc(Cl)cc1 -12.4%
CS(=O)(=O)N(CC(=O)N1CCCC1)c1cccc(F)c1 -7.69%
Cc1cccn2c(=O)c(C(=O)N3CCN(c4ccc(Cl)cc4)CC3)cnc12 -19.3%
CN(c1ccc(OCC(=O)N2CCOCC2)cc1)S(=O)(=O)c1ccc(Cl)cc1 -5.59%

Potency, inconclusive:
O=S(=O)(N/N=C/c1ccc(Cl)cc1)c1ccc(Cc2ncc(C(F)(F)F)cc2Cl)s1 79.4 µM [inhibitor, partial curve]
CC(C)CNC(=S)NC(=O)c1csc([N+](=O)[O-])c1 56.2 µM [inhibitor, partial curve]
Cc1ccc(-c2ccc(CCC(=O)O)n2-c2ccc(C)c(Cl)c2)cc1 50.1 µM [inhibitor, partial curve]
CCN(CCCNC(=O)COc1cc(=O)n(CC)c2ccccc12)c1ccccc1 63.1 µM [inhibitor, partial curve]
O=[N+]([O-])c1ccc2c(c1)-c1ccccc1C2=NO 20 µM [inhibitor, full curve]
COc1cc(CNCc2ccccn2)ccc1OCC(=O)NC(C)(C)C 20 µM [inhibitor, full curve]
O=C1C(C2=NC(C(=O)O)C3C(=O)N(c4ccc(Cl)cc4)C(=O)C23)=C(O)c2ccccc21 (stereo unspecified) 79.4 µM [inhibitor, single point]
Cc1noc(C)c1S(=O)(=O)NCC(=O)O 25.1 µM [inhibitor, partial curve]
COc1ccc(NC(=O)CN2CCN(C3c4ccccc4-c4ccccc43)CC2)c(OC)c1 50.1 µM [inhibitor, partial curve]
O=C(CSc1nccn1-c1ccc(Cl)cc1)NCc1ccc2c(c1)OCO2 50.1 µM [inhibitor, partial curve]
Cc1ccc(N2CC(C(=O)Nc3ccc4c(c3)OCO4)CC2=O)cc1C (stereo unspecified) 44.7 µM [inhibitor, partial curve]
Cc1cc2ccccn2c1C(=O)c1ccc([N+](=O)[O-])o1 25.1 µM [inhibitor, partial curve]
C=CCn1c(SCC(=O)NCC2CCCO2)nnc1C1CCCCC1 (stereo unspecified) 89.1 µM [inhibitor, single point]
COc1cccc(-c2nc(C(N)=O)c3[nH]c(=O)n(-c4cccc(Cl)c4)c3n2)c1OC 56.2 µM [inhibitor, partial curve]
CNS(=O)(=O)c1cn(CC(=O)NCc2ccccc2OC)cc1S(=O)(=O)NC 3.98 µM [inhibitor, partial curve, poor fit]
COc1cccc(-c2nn(C)c3sc(C(=O)NCCCN(C)Cc4ccccc4)cc23)c1 50.1 µM [inhibitor, partial curve]
O=C1/C(=C\c2ccc(O)c(O)c2)Oc2c1ccc(O[C@@H]1O[C@H](CO)[C@@H](O)[C@H](O)[C@H]1O)c2O 50.1 µM [inhibitor, partial curve]
CCN(CC)c1ccc(C2Nc3cccc4cccc(c34)N2)cc1 28.2 µM [inhibitor, partial curve]
COc1ccc(OC)c(CN2CCN(C(=O)c3cc4ccccc4cc3O)CC2)c1 56.2 µM [inhibitor, partial curve, poor fit]
COCCn1cc(-c2csc(N)n2)c2ccccc21 56.2 µM [inhibitor, partial curve]
O=C1c2ccccc2C(O)(c2ncc[nH]2)N1CCc1ccccc1 (stereo unspecified) 63.1 µM [inhibitor, partial curve]
CCOc1cc(N2CCOCC2)c(OCC)cc1NC(=O)c1ccccc1C 56.2 µM [inhibitor, partial curve]
C=CCNC(=S)NNC(=O)COc1ccc(Cl)cc1Cl 89.1 µM [inhibitor, single point]
Cc1cc2c(cc3c(SCc4cccc(Cl)c4)nnc(C)n32)o1 17.8 µM [inhibitor, full curve]
COc1cccc(N2CCN(C(=O)c3ccc4c(Cl)c5c(nc4c3)CCCC5)CC2)c1 12.6 µM [inhibitor, full curve]
CCOc1cccc(C(=O)NC(=S)Nc2ccccc2)c1 56.2 µM [inhibitor, single point]
O=C(CSc1nccn1-c1ccccc1)c1ccc(Br)cc1 56.2 µM [inhibitor, partial curve]
Oc1c(/C=C/C=C/C=Nc2ccccc2)sc(=S)n1Cc1ccccc1 3.55 µM [inhibitor, full curve, poor fit]
O=S(=O)(Nc1ccc(-n2cccc2)cc1)c1ccccc1 50.1 µM [inhibitor, partial curve]
COc1ccc(C(=O)Nc2ccc(S(=O)(=O)NCc3ccco3)cc2)cc1OC 39.8 µM [inhibitor, partial curve]
Cc1cc(C)c(CN2CCN(CCCn3cnc(C(=O)Nc4ccc(C)c(C)c4)n3)CC2)c(C)c1 50.1 µM [inhibitor, partial curve]
CCCCNC(=S)Nc1ccc2nc(N3CCN(CC)CC3)cc(C)c2c1 8.91 µM [inhibitor, single point]
Cc1[nH]c2ccc(F)cc2c1CCN(Cc1cccnc1)C(=S)Nc1ccc(F)cc1 50.1 µM [inhibitor, partial curve]
CCN(CC)S(=O)(=O)c1ccc(N2CCOCC2)c(NS(=O)(=O)c2cc(C(C)(C)C)ccc2C)c1 70.8 µM [inhibitor, single point]
CSc1ccccc1NC(=O)CN1CCCCC1 100 µM [inhibitor, single point]
CCn1c2ccccc2c2cc(NC(=O)C(=O)N3CCOCC3)ccc21 20 µM [inhibitor, full curve]
O=C(c1cn(-c2ccccc2)nc1-c1cccs1)N1CCN(c2ccccc2)CC1 39.8 µM [inhibitor, partial curve]
CCN(CC)CCNCc1ccc(-c2ccc(Cl)cc2)o1 79.4 µM [inhibitor, partial curve]
CCOC(=O)c1ccc(N2N=C(C)/C(=C/C=C/c3ccco3)C2=O)cc1 5.62 µM [inhibitor, full curve, poor fit]
COc1ccc2c(c1)cc1n2CCN=C1NN 89.1 µM [inhibitor, single point]
COc1cc2c(cc1OC)C(c1cc(Br)ccc1F)N(C(=O)CCl)CC2 (stereo unspecified) 89.1 µM [inhibitor, partial curve]
CNc1[nH]c(=O)[nH]c(=O)c1N=Nc1cc(Cl)ccc1Cl 89.1 µM [inhibitor, single point]

Potency, active:
CCOc1cc2c3c(c1)C1(Nc4ccccc4S1)C(=O)N3C(C)(C)CC2C (stereo unspecified) 35.5 µM
COc1cccc(/C=N/n2c(C3CCCCC3)n[nH]c2=S)c1O 25.1 µM
CCCCN(CCCC)C(=S)N/N=C/c1c(C)[nH]n(-c2ccccc2)c1=O 79.4 µM
COc1ccc(C(=O)N/N=C(/C)c2ccc(N3CCCCC3)cc2)cc1 50.1 µM
O=C(O)Cc1csc(NC(=O)CSc2cccc(C(=O)O)n2)n1 89.1 µM
O=[N+]([O-])c1ccccc1OCCNCc1ccccc1 44.7 µM
Cc1ccc(NCc2cccnc2)c(Br)c1 3.16 µM
CN(C)c1ccc(C(=O)Nc2nnc(C3=COCCO3)o2)cc1 79.4 µM
